Data reported in the supplement of paper PMC10037445.
In all, about 2,900 compounds were measured (“NF-kB SEAP reporter activity, fold change vs agonist alone”: median about 0.99, highest 2% from about 2.6 on). This is one part of the list.

Columns and labels:
RAW-Dual [1] = experiment: NF-kB SEAP reporter activity, fold change vs agonist alone; cytotoxicity flag (confluency mask): not cytotoxic; higher = enhanced NF-kB activity
In short: (§1)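 Supernatant from RAW-Dual macrophages was read after 20 hours for IRF by QuantiLuc luminescence and for NF-κB by QuantiBlue absorbance at 620 nm. The cells (50,000 cells/well in DMEM, 384-well plates, 37 °C, 5% CO2) had received 50 nL of library stock by pin tool and, 1 h later, a PRR agonist. Reporter activity is expressed relative to agonist-alone wells as fold change, and wells were flagged cytotoxic if IncuCyte confluency was under 70% of agonist controls in both mask sets.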

RAW-Dual [2] = experiment: NF-kB SEAP reporter activity, fold change vs agonist alone; higher = enhanced NF-kB activity
In short: as §1

RAW-Dual [3] = experiment: NF-kB SEAP reporter activity, fold change vs agonist alone; cytotoxicity flag (confluency mask): cytotoxic (confluency <70% of control); higher = enhanced NF-kB activity
In short: as §1

[4] = agonist: ODN 1826 (TLR9) 0.5 ug/mL
[5] = agonist: Pam2CSK4 (TLR2/6) 0.1 ug/mL
[6] = agonist: Pam3CSK4 (TLR2/1) 0.1 ug/mL
[7] = library stock concentration (final ~1000-fold dilution): 10 mM, cytotoxicity flag (confluency mask): not cytotoxic, agonist: Imiquimod (TLR7) […]
[8] = library stock concentration (final ~1000-fold dilution): 10 mM, cytotoxicity flag (confluency mask): not cytotoxic, agonist: MPLA (TLR4) […]
[9] = library stock concentration (final ~1000-fold dilution): 10 mM, cytotoxicity flag (confluency mask): cytotoxic (confluency <70% of control), agonist: Imiquimod (TLR7) […]
[10] = library stock concentration (final ~1000-fold dilution): 10 mM, cytotoxicity flag (confluency mask): cytotoxic (confluency <70% of control), agonist: MPLA (TLR4) […]

## COc1ccccc1Nc1nc(-c2sc(NC(C)=O)nc2C)cs1 (library stock concentration (final ~1000-fold dilution): 10 mM)
RAW-Dual [1]; agonist: LPS (TLR4) 0.1 ug/mL
  NF-kB SEAP reporter activity: 0.496
RAW-Dual [1]; [4]
  NF-kB SEAP reporter activity: 0.464
RAW-Dual [1]; [5]
  NF-kB SEAP reporter activity: 0.318
RAW-Dual [1]; [6]
  NF-kB SEAP reporter activity: 0.245

## CCCC1CC(C(=O)NC(C(C)Cl)C2OC(SC)C(OP(=O)(O)O)C(O)C2O)N(C)C1 (configuration not stated) (library stock concentration (final ~1000-fold dilution): 10 mM water)
RAW-Dual [1]; agonist: LPS (TLR4) 0.1 ug/mL
  NF-kB SEAP reporter activity: 1.09
RAW-Dual [1]; [4]
  NF-kB SEAP reporter activity: 1.11
RAW-Dual [1]; [5]
  NF-kB SEAP reporter activity: 1.17
RAW-Dual [1]; [6]
  NF-kB SEAP reporter activity: 1.12

## CCCC1CC(C(=O)NC(C(C)Cl)C2OC(SC)C(OP(=O)(O)O)C(O)C2O)N(C)C1 (configuration not stated)
RAW-Dual [2]; library stock concentration (final ~1000-fold dilution): 10 mM water, cytotoxicity flag (confluency mask): not cytotoxic, agonist: Imiquimod (TLR7) […]
  NF-kB SEAP reporter activity: 0.893
RAW-Dual [2]; library stock concentration (final ~1000-fold dilution): 10 mM water, cytotoxicity flag (confluency mask): not cytotoxic, agonist: MPLA (TLR4) […]
  NF-kB SEAP reporter activity: 1.06

## COc1ccc(Cn2ccc3ccc(C(=O)NO)cc32)cc1
RAW-Dual [2]; [7]
  NF-kB SEAP reporter activity: 0.789
RAW-Dual [2]; [8]
  NF-kB SEAP reporter activity: 0.903

## COc1ccc(Cn2ccc3ccc(C(=O)NO)cc32)cc1 (library stock concentration (final ~1000-fold dilution): 10 mM)
RAW-Dual [1]; agonist: LPS (TLR4) 0.1 ug/mL
  NF-kB SEAP reporter activity: 0.996
RAW-Dual [1]; [4]
  NF-kB SEAP reporter activity: 0.62
RAW-Dual [1]; [5]
  NF-kB SEAP reporter activity: 0.788
RAW-Dual [1]; [6]
  NF-kB SEAP reporter activity: 0.588

## C#Cc1cccc(Nc2ncnc3cc(OCCOC)c(OCCOC)cc23)c1
RAW-Dual [2]; [7]
  NF-kB SEAP reporter activity: 1.02
RAW-Dual [2]; [8]
  NF-kB SEAP reporter activity: 1.88

## C#Cc1cccc(Nc2ncnc3cc(OCCOC)c(OCCOC)cc23)c1 (library stock concentration (final ~1000-fold dilution): 10 mM)
RAW-Dual [1]; agonist: LPS (TLR4) 0.1 ug/mL
  NF-kB SEAP reporter activity: 4.68
RAW-Dual [1]; [4]
  NF-kB SEAP reporter activity: 1.33
RAW-Dual [1]; [5]
  NF-kB SEAP reporter activity: 0.887
RAW-Dual [1]; [6]
  NF-kB SEAP reporter activity: 0.935

## CC(C)Cc1ccc([C@@H](C)C(=O)O)cc1
RAW-Dual [2]; [7]
  NF-kB SEAP reporter activity: 0.906
RAW-Dual [2]; [8]
  NF-kB SEAP reporter activity: 1

## CC(C)Cc1ccc([C@@H](C)C(=O)O)cc1 (library stock concentration (final ~1000-fold dilution): 10 mM)
RAW-Dual [1]; agonist: LPS (TLR4) 0.1 ug/mL
  NF-kB SEAP reporter activity: 1.16
RAW-Dual [1]; [4]
  NF-kB SEAP reporter activity: 1.17
RAW-Dual [1]; [5]
  NF-kB SEAP reporter activity: 1.09
RAW-Dual [1]; [6]
  NF-kB SEAP reporter activity: 1.1

## O=C1C[C@@H](c2ccc(O)c(O)c2)Oc2cc(O)cc(O)c21
RAW-Dual [2]; [7]
  NF-kB SEAP reporter activity: 1.12
RAW-Dual [2]; [8]
  NF-kB SEAP reporter activity: 1.5

## O=C1C[C@@H](c2ccc(O)c(O)c2)Oc2cc(O)cc(O)c21 (library stock concentration (final ~1000-fold dilution): 10 mM)
RAW-Dual [1]; agonist: LPS (TLR4) 0.1 ug/mL
  NF-kB SEAP reporter activity: 1.16
RAW-Dual [1]; [4]
  NF-kB SEAP reporter activity: 0.787
RAW-Dual [1]; [5]
  NF-kB SEAP reporter activity: 0.563
RAW-Dual [1]; [6]
  NF-kB SEAP reporter activity: 0.744

## CS(=O)(=O)O.O=C(NC1CCN(CCCCC2(C(=O)NCC(F)(F)F)c3ccccc3-c3ccccc32)CC1)c1ccccc1-c1ccc(C(F)(F)F)cc1
RAW-Dual [2]; [9]
  NF-kB SEAP reporter activity: 0.907
RAW-Dual [2]; [10]
  NF-kB SEAP reporter activity: 0.931

## CS(=O)(=O)O.O=C(NC1CCN(CCCCC2(C(=O)NCC(F)(F)F)c3ccccc3-c3ccccc32)CC1)c1ccccc1-c1ccc(C(F)(F)F)cc1 (library stock concentration (final ~1000-fold dilution): 10 mM)
RAW-Dual [3]; agonist: LPS (TLR4) 0.1 ug/mL
  NF-kB SEAP reporter activity: 0.339
RAW-Dual [3]; [4]
  NF-kB SEAP reporter activity: 0.219
RAW-Dual [3]; [5]
  NF-kB SEAP reporter activity: 0.378
RAW-Dual [3]; [6]
  NF-kB SEAP reporter activity: 0.162

## O=C(/C=C/c1cncc(F)c1)c1c(-c2ccccc2)c2cc(Cl)ccc2[nH]c1=O
RAW-Dual [2]; [9]
  NF-kB SEAP reporter activity: 0.157
RAW-Dual [2]; [10]
  NF-kB SEAP reporter activity: 0.259

## O=C(/C=C/c1cncc(F)c1)c1c(-c2ccccc2)c2cc(Cl)ccc2[nH]c1=O (library stock concentration (final ~1000-fold dilution): 10 mM)
RAW-Dual [3]; agonist: LPS (TLR4) 0.1 ug/mL
  NF-kB SEAP reporter activity: 0.257
RAW-Dual [3]; [4]
  NF-kB SEAP reporter activity: 0.212
RAW-Dual [3]; [5]
  NF-kB SEAP reporter activity: 0.0981
RAW-Dual [3]; [6]
  NF-kB SEAP reporter activity: 0.253

## CC1COCCN1c1cc(-c2ccnn2C)c2ccnc(-c3ccn[nH]3)c2n1.Cl (configuration not stated) (library stock concentration (final ~1000-fold dilution): 10 mM)
RAW-Dual [1]; agonist: LPS (TLR4) 0.1 ug/mL
  NF-kB SEAP reporter activity: 1.89
RAW-Dual [1]; [4]
  NF-kB SEAP reporter activity: 0.957
RAW-Dual [1]; [5]
  NF-kB SEAP reporter activity: 1.09
RAW-Dual [1]; [6]
  NF-kB SEAP reporter activity: 1.19

## CC1COCCN1c1cc(-c2ccnn2C)c2ccnc(-c3ccn[nH]3)c2n1.Cl (configuration not stated)
RAW-Dual [2]; [7]
  NF-kB SEAP reporter activity: 1.48
RAW-Dual [2]; [8]
  NF-kB SEAP reporter activity: 2.05
